Source: the supplement of paper PMC7826260
The list shows a part of the results. The data describe in vitro nicking of single-stranded DNA by Rep domains (3 µM enzyme, 1 h, 37 °C); shown is the middle of each 90-letter strand. A value is the log2 ratio of uncut reads to the pool without enzyme; strong cutting gives strongly negative numbers. There is no active / inactive call. The scaling is to total reads; where an enzyme cuts many sequences, the uncut ones exceed 0.

Columns and labels:
Test in all cases: uncleaved DNA left, log2 of reads against the no-enzyme library (log2 ratio); higher = less cleavage (more negative = more Rep cleavage of the k-mer); sequences stand for … in CTCGTCCG…ACCGGAGA
[1] = tested on: T1, Rep nickase domain of Muscovy duck circovirus
T1 sequence (residues 1-111 of Rep, tag left off): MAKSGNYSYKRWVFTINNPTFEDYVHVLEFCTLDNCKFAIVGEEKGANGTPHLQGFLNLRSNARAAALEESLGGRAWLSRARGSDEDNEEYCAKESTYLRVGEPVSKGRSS
Procedure: (§1)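 A pool of 90-nt single-stranded DNAs with seven random bases just before the constant AC of the nick site (name = the seven bases) was cut by 3 µM recombinant His6-SUMO-tagged Rep nickase domain (300 nM DNA, 50 mM HEPES pH 8.0, 50 mM NaCl, 1 mM MnCl2, 1 h, 37 °C, three replicates). Uncut DNA was amplified and sequenced.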

[2] = tested on: T2, Rep nickase domain of banana bunchy top virus
T2 sequence (residues 1-94 of Rep, tag left off): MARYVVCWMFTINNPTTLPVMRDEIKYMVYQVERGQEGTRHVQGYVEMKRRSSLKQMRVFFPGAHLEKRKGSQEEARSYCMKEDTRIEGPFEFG
Procedure: as §1

[3] = tested on: T3, Rep nickase domain of cabbage leaf curl virus
T3 sequence (residues 1-116 of Rep, tag left off): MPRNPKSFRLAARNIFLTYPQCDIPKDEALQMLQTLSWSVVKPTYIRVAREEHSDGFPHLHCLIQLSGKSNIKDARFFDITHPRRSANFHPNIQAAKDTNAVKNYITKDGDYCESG
Procedure: as §1

[4] = tested on: T4, Rep nickase domain of chickpea chlorotic dwarf virus
T4 sequence (residues 1-124 of Rep, tag left off): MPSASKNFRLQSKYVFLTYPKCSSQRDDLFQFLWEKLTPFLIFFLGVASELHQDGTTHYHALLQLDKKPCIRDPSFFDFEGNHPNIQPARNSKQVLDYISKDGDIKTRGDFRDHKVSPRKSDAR
Procedure: as §1

[5] = tested on: T5, Rep nickase domain of faba bean necrotic yellows virus
T5 sequence (residues 1-98 of Rep, tag left off): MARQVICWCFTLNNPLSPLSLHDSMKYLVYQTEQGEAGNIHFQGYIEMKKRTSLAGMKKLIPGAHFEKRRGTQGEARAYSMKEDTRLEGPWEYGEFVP
Procedure: as §1

[6] = tested on: T6, Rep nickase domain of maize striate mosaic virus
T6 sequence (residues 1-117 of Rep, tag left off): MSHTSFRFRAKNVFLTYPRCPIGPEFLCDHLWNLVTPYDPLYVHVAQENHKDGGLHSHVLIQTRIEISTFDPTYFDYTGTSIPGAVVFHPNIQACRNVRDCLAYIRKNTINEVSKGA
Procedure: as §1

[7] = tested on: T7, Rep nickase domain of porcine circovirus 2
T7 sequence (residues 2-116 of Rep, tag left off): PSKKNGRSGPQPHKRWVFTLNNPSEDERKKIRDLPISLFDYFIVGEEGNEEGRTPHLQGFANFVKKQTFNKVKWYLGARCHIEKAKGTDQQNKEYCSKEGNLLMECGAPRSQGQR
Procedure: as §1

[8] = tested on: T8, Rep nickase domain of tomato golden mosaic virus
T8 sequence (residues 1-124 of Rep, tag left off): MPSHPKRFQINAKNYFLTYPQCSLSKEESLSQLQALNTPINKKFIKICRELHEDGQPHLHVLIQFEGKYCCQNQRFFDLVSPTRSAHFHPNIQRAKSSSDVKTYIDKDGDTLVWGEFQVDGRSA
Procedure: as §1

[9] = tested on: T9, Rep nickase domain of tomato yellow leaf curl virus
T9 sequence (residues 1-136 of Rep, tag left off): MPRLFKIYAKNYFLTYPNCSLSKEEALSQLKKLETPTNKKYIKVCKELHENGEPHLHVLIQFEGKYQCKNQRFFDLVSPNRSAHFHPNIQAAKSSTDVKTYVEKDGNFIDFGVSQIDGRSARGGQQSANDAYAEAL
Procedure: as §1

[10] = tested on: T10, Rep nickase domain of wheat dwarf virus
T10 sequence (residues 1-137 of Rep, tag left off): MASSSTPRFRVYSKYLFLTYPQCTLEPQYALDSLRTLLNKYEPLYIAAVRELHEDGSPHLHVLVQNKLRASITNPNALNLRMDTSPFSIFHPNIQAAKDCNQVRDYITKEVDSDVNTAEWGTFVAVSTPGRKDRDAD
Procedure: as §1

| Sequence | uncleaved DNA left (log2) [1] | uncleaved DNA left (log2) [2] | uncleaved DNA left (log2) [3] | uncleaved DNA left (log2) [4] | uncleaved DNA left (log2) [5] | uncleaved DNA left (log2) [6] | uncleaved DNA left (log2) [7] | uncleaved DNA left (log2) [8] | uncleaved DNA left (log2) [9] | uncleaved DNA left (log2) [10] |
| --- | --- | --- | --- | --- | --- | --- | --- | --- | --- | --- |
| ATCATCC | 0.123 | 0.0527 | 0.0437 | 8.78e-05 | 0.0335 | -0.45 | 0.0823 | 0.0982 | 0.0439 | 0.0906 |
| ACGAGTA | 0.0694 | -0.119 | -0.195 | -0.859 | 0.0947 | -0.736 | -0.226 | 0.0714 | -0.165 | -0.101 |
| GCCTATA | 0.0498 | -0.0314 | 0.146 | -0.144 | -0.102 | 0.319 | 0.0532 | 0.0649 | 0.0995 | 0.0337 |
| CCAGTTC | 0.0764 | -0.139 | 0.0725 | -1.03 | 0.00368 | -0.914 | 0.13 | -0.0377 | -0.0788 | -0.194 |
| CTCTCGT | 0.131 | -0.0669 | -0.473 | -0.799 | -0.0456 | -0.901 | -0.212 | -0.0629 | 0.00469 | -0.161 |
| AGTTCGC | -0.0474 | -0.0109 | -0.557 | -0.677 | -0.0394 | -1.14 | -0.0549 | -0.0247 | 0.0173 | -0.129 |
| TTCGTGA | 0.126 | 0.0908 | 0.216 | 0.0443 | 0.0889 | -0.379 | 0.192 | 0.158 | 0.171 | 0.141 |
| GAGCAGA | 0.021 | 0.099 | 0.267 | 0.776 | 0.00499 | 0.763 | -0.0456 | 0.017 | -0.0629 | 0.0313 |
| ACTGACG | 0.098 | 0.196 | -0.695 | -0.397 | 0.0977 | -1.06 | 0.13 | 0.0623 | 0.184 | 0.0796 |
| TGTTCTA | 0.0371 | 0.0485 | 0.262 | 0.254 | 0.054 | 0.983 | -0.124 | 0.0385 | 0.156 | 0.0487 |
| CTTGGTG | 0.0494 | -0.0597 | -0.6 | -0.501 | 0.0491 | -0.942 | 0.0577 | -0.0243 | 0.0548 | -0.0578 |
| ATGGAAG | -0.0689 | -0.0339 | -0.667 | -0.479 | -0.0291 | -1.03 | 0.144 | -0.0665 | -0.12 | -0.0516 |
| GAATGGG | 0.0147 | 0.0128 | -0.421 | -0.253 | 0.0283 | -0.714 | 0.158 | 0.065 | -0.0587 | 0.00118 |
| GGCCCTA | -0.0614 | 0.123 | 0.578 | 1.21 | 0.145 | 1.83 | -0.0164 | -0.0186 | 0.147 | 0.243 |
| AGCCAAG | 0.0141 | 0.134 | -0.345 | -0.365 | 0.0486 | -0.695 | 0.272 | 0.111 | 0.0813 | 0.0397 |
| CTATTGT | -0.316 | -0.032 | -0.769 | -0.904 | 0.0493 | -1.24 | -0.427 | -0.0537 | -0.0243 | -0.05 |
| CTGCATT | 0.0162 | 0.0282 | -0.0684 | -1.13 | -0.122 | -0.631 | -0.426 | -0.104 | 0.138 | 0.0241 |
| TCGCCAC | 0.0797 | 0.0916 | 0.173 | 0.0607 | 0.042 | -0.304 | 0.0206 | 0.00256 | 0.0784 | 0.159 |
| ACAACAG | 0.133 | 0.0249 | -0.541 | -0.358 | 0.11 | -0.811 | 0.181 | 0.0838 | 0.147 | 0.0394 |
| GCTGTAA | 0.031 | 0.0991 | 0.133 | 0.451 | -0.059 | 0.843 | 0.109 | -0.0119 | 0.0552 | -0.0639 |
| GCCAACT | -0.024 | -0.0706 | 0.0332 | -1.79 | -0.0824 | -0.0611 | -0.185 | -0.0386 | -0.0965 | -0.0767 |
| CAACGGC | -0.0586 | -0.0592 | -0.263 | -0.624 | -0.116 | -0.922 | -0.0628 | -0.0666 | -0.0431 | -0.152 |
| GCGGAAA | -0.0382 | 0.123 | 0.49 | 1.33 | 0.0332 | 1.48 | 0.0929 | -0.0671 | -0.0223 | -0.0112 |
| CTGTCCA | -0.119 | -0.0286 | -0.0029 | -0.821 | -0.0983 | -0.366 | -0.323 | -0.131 | -0.0871 | -0.0258 |
| CTGCAGG | 0.19 | 0.057 | 0.0371 | 0.404 | 0.293 | -0.463 | 0.243 | 0.104 | 0.193 | 0.19 |
| GTATACG | 0.0334 | -0.00857 | -0.546 | -0.644 | -0.033 | -0.885 | 0.173 | 0.0297 | 0.0488 | -0.094 |
| ATTACCT | -0.235 | -0.11 | -0.224 | -2.7 | -0.0226 | -0.389 | -2.78 | -0.00324 | -0.0673 | 0.0948 |
| GTAGACG | 0.0528 | 0.0882 | -0.217 | -0.0523 | 0.121 | -0.33 | 0.0697 | 0.0525 | 0.102 | 0.061 |
| AATATTC | -0.0544 | -0.0897 | -0.153 | -0.386 | 0.0258 | -0.932 | -0.118 | -0.121 | -0.185 | -0.135 |
| TTAAGCT | 0.0375 | -0.115 | -2.69 | -3.04 | -0.00443 | -1.15 | 0.00129 | -0.214 | -0.0726 | -0.402 |
